Test results: PubChem BioAssay AID485344 (National Center for Advancing Translational Sciences (NCATS), 2010)
Among all 340,000 compounds or so, about 6,900 (2%) were called active. Cut-off read from the data, not from the text of the source: active = inhibition above about 30%; inactive = below that, where a call was filed. The list shows a part of the results, in another mix than the full data. Entries without a call were filed so in the source.

target: D(2) dopamine receptor (Homo sapiens) (UniProt P14416); assay: HTS Assay for Allosteric Antagonists of the Human D2 Dopamine Receptor: Primary Screen for Antagonists; settings: HEK293 TREx D2 cells, calcium flux, dopamine EC80; at 10 µM; stronger effect = higher value; note: 0% is about no effect
Chain of UniProt P14416 (P14416 whole entry, looked up): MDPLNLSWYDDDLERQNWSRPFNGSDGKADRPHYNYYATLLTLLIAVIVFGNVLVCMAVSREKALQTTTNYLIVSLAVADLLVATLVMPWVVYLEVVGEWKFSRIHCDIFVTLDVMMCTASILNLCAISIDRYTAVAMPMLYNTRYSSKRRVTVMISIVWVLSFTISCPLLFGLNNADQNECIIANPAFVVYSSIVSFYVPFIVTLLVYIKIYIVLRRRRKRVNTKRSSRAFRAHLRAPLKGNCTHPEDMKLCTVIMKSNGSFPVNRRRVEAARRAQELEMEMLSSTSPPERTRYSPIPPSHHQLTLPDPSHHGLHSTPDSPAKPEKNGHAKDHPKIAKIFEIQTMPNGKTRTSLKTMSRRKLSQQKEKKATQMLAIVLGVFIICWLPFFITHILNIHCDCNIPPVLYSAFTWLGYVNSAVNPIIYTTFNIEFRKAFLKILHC
How it was run: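 Read-out: kinetic calcium fluorescence (1 cycle/s) in inducible HEK293 T-REx D2 cells after an EC80 dopamine addition that followed 180 s compound preincubation. Loss of the dopamine response indicates antagonism.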

**Q.** Which inhibition does the source give for Cc1cc2n(n1)CCCN2C(=O)Nc1ccc(Cl)cc1 here?
**A.** -20%

**Q.** For CCCSc1ncc(Cl)c(C(=O)Nc2sc3c(c2C(=O)NCC)CCCC3)n1, which inhibition is on record?
**A.** 14.6%

**Q.** With CCCn1ccc2c(OCC(=O)NCc3ccc(F)cc3)cccc2c1=O as the molecule, how does the inhibition read?
**A.** -17.7%

**Q.** Cc1cccc(-n2c(=O)c3c(n4cnnc24)-c2ccccc2CC32CCCCC2)c1 was tested. Which inhibition did it give?
**A.** active: 31.4%

**Q.** With CCCCN(C)CC(O)Cn1cc(/C=C/C(=O)c2ccc(OC)c(OC)c2)c2ccccc21 (stereo not drawn) as the molecule, how does the inhibition read?
**A.** 3.16%

**Q.** How did the inhibition turn out when Cc1ccc(-c2nc(S(=O)(=O)c3ccc(Cl)cc3)c(N3CCCCC3)o2)cc1 was run?
**A.** -18.5%

**Q.** How did the inhibition turn out when Cc1nn(C)c2ncc(C(=O)c3ccccc3O)cc12 was run?
**A.** active: 47.9%

**Q.** With COc1ccc(CNC(=O)Cn2nnc(-c3ccccc3F)n2)cc1 as the molecule, how does the inhibition read?
**A.** -9.36%

**Q.** CCc1cc2c(cc3c(=O)n(CC(=O)N4CCCCC4)nc(CC)n32)s1 was tested. Which inhibition did it give?
**A.** -0.203%

**Q.** For COc1ccc(Cl)cc1C(=O)Nc1ccc2oc(-c3ccc(C(C)(C)C)cc3)nc2c1, which inhibition is on record?
**A.** -2.01%

**Q.** CCOc1ccc(S(=O)(=O)N2CCN(S(=O)(=O)c3ccc(C(C)=O)cc3)CC2)cc1 was tested. Which inhibition did it give?
**A.** active: 35.7%

**Q.** Cc1cc(NC(=O)c2ccc(-c3ccc(Br)cc3)o2)cc(-c2nc3ncccc3o2)c1O was tested. Which inhibition did it give?
**A.** 6.1%

**Q.** Cc1ccc2nc(Cl)c3cc(C(=O)NCCCN4CCC(C)CC4)sc3c2c1 was tested. Which inhibition did it give?
**A.** 14.9%

**Q.** Which inhibition does the source give for COc1ccc(NC(=O)Cc2csc(COc3cccc(C)c3)n2)cc1OC here?
**A.** 1.43%

**Q.** With Cc1ccc(C)c(S(=O)(=O)c2nnn3c2nc(NCc2cccs2)c2sccc23)c1 as the molecule, how does the inhibition read?
**A.** 17.4%

**Q.** Which inhibition does the source give for COc1ccc2c(c1)c1c(c(=O)n(-c3ccccc3)c(=O)n1CC(=O)Nc1ccc(F)cc1)n2C here?
**A.** -3.31%

**Q.** COc1ccc(N2CC(NC(=O)c3ccc4c(c3)OCO4)CC2=O)cc1OC (stereo not drawn) was tested. Which inhibition did it give?
**A.** 21.9%

**Q.** For Cc1ccc(Cl)cc1N1CCN(C(=O)c2cccn2-c2nnc(N3CCCCC3)s2)CC1, which inhibition is on record?
**A.** 13.1%

**Q.** For CC1C(=O)Nc2ccc(S(=O)(=O)Nc3ccccc3Br)cc2NC1=O (stereo not drawn), which inhibition is on record?
**A.** 17.3%

**Q.** For COc1cc(Cl)ccc1OC(=O)c1cn(-c2ccccc2OC)c(=O)c2ccccc12, which inhibition is on record?
**A.** 1.9%

**Q.** Which inhibition does the source give for CC1CCN(CCOc2ccc(Cl)c(Cl)c2)CC1 here?
**A.** active: 83.6%

**Q.** CC(C)CCNC(=O)c1ccc(Cn2c(SCC(=O)NC(C)C)nc3ccccc3c2=O)cc1 was tested. Which inhibition did it give?
**A.** 17.6%

**Q.** With Cc1ccc(-n2nc(C(=O)N3CCN(c4ccccc4F)CC3)c3c4ccccc4n(C)c3c2=O)cc1 as the molecule, how does the inhibition read?
**A.** -0.721%

**Q.** For COc1cccc(CNC(=O)CN2N=C(c3ccc(C)cc3)CCC2=O)c1, which inhibition is on record?
**A.** 11.3%

**Q.** With O=C(NCc1ccccc1Cl)c1cccn1-c1nnc(N2CCCCC2)s1 as the molecule, how does the inhibition read?
**A.** -7.25%

**Q.** Cc1ccc(N(C)S(=O)(=O)c2ccc3c(c2)C(C)(C)C(=O)N3C)cc1C was tested. Which inhibition did it give?
**A.** -4.49%

**Q.** How did the inhibition turn out when CCC(C(=O)N1CCN(c2cc(Cl)ccc2C)CC1)n1nc(C)c2sc3ccccc3c2c1=O (stereo not drawn) was run?
**A.** 14.7%

**Q.** CC(=O)c1ccccc1NS(=O)(=O)c1cc2c(cc1C)NC(=O)CO2 was tested. Which inhibition did it give?
**A.** 12.5%

**Q.** For CCN(CC)CCCNC(=O)CCCn1c(=O)[nH]c2ccc(Br)cc2c1=O, which inhibition is on record?
**A.** 14%

**Q.** CCOc1ccc(-c2noc(CSc3nnc(-c4ccccc4)n3-c3ccccc3)n2)cc1 was tested. Which inhibition did it give?
**A.** 0.931%

**Q.** With CN1C(=O)c2ccccc2Sc2ccc(NC(=O)Cc3c(F)cccc3Cl)cc21 as the molecule, how does the inhibition read?
**A.** -18.2%

**Q.** For CCC(CC)C(=O)Nc1ccc(C(=O)OCc2cc(=O)n3nc(C4CC4)sc3n2)cc1, which inhibition is on record?
**A.** 9.7%

**Q.** CCC(=O)Nc1ccc(C)cc1-c1nc2ccccc2n(C(C)C(=O)Nc2ccccc2CC)c1=O (stereo not drawn) was tested. Which inhibition did it give?
**A.** 24.4%

**Q.** Cc1ccccc1N(C)C(=O)c1noc2c1COc1ccccc1-2 was tested. Which inhibition did it give?
**A.** 12.5%

**Q.** With Cc1cccc(-c2nc(SCC(=O)NCC3CCCO3)c3c(=O)n(C)c(=O)n(C)c3n2)c1 (stereo not drawn) as the molecule, how does the inhibition read?
**A.** -8.72%

**Q.** CCOC(=O)c1ccc(NC(=O)Nc2ccc3snnc3c2)cc1 was tested. Which inhibition did it give?
**A.** -8.45%

**Q.** For O=C(NCCN1C(=O)S/C(=C\c2cccnc2)C1=O)c1ccc([N+](=O)[O-])s1, which inhibition is on record?
**A.** active: 33.2%

**Q.** How did the inhibition turn out when C#CCn1c(/C=C/c2ccc(Cl)cc2)nc2ccccc21 was run?
**A.** 17.1%

**Q.** Which inhibition does the source give for CCN(c1ccc(OC)cc1)S(=O)(=O)c1nnc(NC(=O)COc2ccc(F)cc2)s1 here?
**A.** 3.48%

**Q.** For CC(C)CC(=O)NCC(c1ccc2c(c1)OCO2)N1CCN(c2ccccc2F)CC1 (stereo not drawn), which inhibition is on record?
**A.** 1.67%

**Q.** For COc1ccc(CCNC(=O)c2c(C)oc3nc(C)nc(N4CCOCC4)c23)cc1OC, which inhibition is on record?
**A.** 4.01%

**Q.** How did the inhibition turn out when Cc1cc(C)n(-c2nc3ccccc3nc2Nc2cccc(C(=O)NCCc3ccccc3)c2)n1 was run?
**A.** -3.85%

**Q.** Which inhibition does the source give for Cc1ccc(NC(=O)C2CCCN(S(=O)(=O)c3cccc4cccnc34)C2)c(Br)c1 (stereo not drawn) here?
**A.** 13.1%

**Q.** Cn1cc(S(=O)(=O)N2CCCCCC2)cc1C(=O)NCc1ccc(Cl)cc1 was tested. Which inhibition did it give?
**A.** -13.5%

**Q.** How did the inhibition turn out when Cc1onc(-c2ccccc2Cl)c1C(=O)Oc1ccc(Br)cc1 was run?
**A.** 3.22%

**Q.** Which inhibition does the source give for COc1cccc(C(=O)Nc2cccc(OCC(=O)O)c2)c1 here?
**A.** active: 33.7%

**Q.** For CCOc1ccccc1C(=O)N1CCN(CCc2ccccn2)CC1, which inhibition is on record?
**A.** -13.1%

**Q.** How did the inhibition turn out when Cc1ccc(C2=Nc3ccccc3N(CC(=O)Nc3ccccc3C)C(=O)C2)cc1C was run?
**A.** 2.06%

**Q.** Which inhibition does the source give for Cc1ccc(CNC(=O)NC2COc3ccccc3C2)cc1 (stereo not drawn) here?
**A.** 3.03%

**Q.** With Cc1c(Cl)cccc1NC(=O)Cn1nc(C(F)(F)F)c2c1CCC2 as the molecule, how does the inhibition read?
**A.** 7.12%

**Q.** Cc1cc(C)c(NC(=O)Cn2c(=O)n(CCc3ccccc3)c(=O)c3ccccc32)c(C)c1 was tested. Which inhibition did it give?
**A.** 18.4%

**Q.** How did the inhibition turn out when Nc1ccccc1C(=O)NCc1ccc(Cl)cc1 was run?
**A.** active: 30.4%

**Q.** With COc1ccc(OC)c(CNC(=O)c2ccccc2NC(=O)c2nsc3ccccc23)c1 as the molecule, how does the inhibition read?
**A.** -6.92%

**Q.** How did the inhibition turn out when Cc1ccc(N2CCn3c2nc2c3c(=O)n(CCCc3ccccc3)c(=O)n2C)cc1 was run?
**A.** 11.6%

**Q.** For CC(=O)Nc1ccc(C)cc1-c1nc2ccccc2n(CC(=O)c2ccc(Cl)cc2)c1=O, which inhibition is on record?
**A.** 15.7%

**Q.** How did the inhibition turn out when COC(=O)c1cc2oc3ccccc3c2n1CC(=O)Nc1cc(OC)cc(OC)c1 was run?
**A.** -8.58%

**Q.** For COc1cccc2cc(-c3cn4c(n3)sc3cc(F)ccc34)c(=O)oc12, which inhibition is on record?
**A.** -14.6%

**Q.** Which inhibition does the source give for CC(=O)N(Cc1cccnc1)c1nc2ccc(F)cc2s1 here?
**A.** -12.4%

**Q.** For COc1ccc(C(=O)NCC(c2cccs2)S(=O)(=O)c2ccc(F)c(C)c2)cc1 (stereo not drawn), which inhibition is on record?
**A.** 6.72%

**Q.** With COc1ccccc1-c1nn2c(=O)cc(CN3CCN(S(=O)(=O)c4ccc(C)cc4)CC3)nc2s1 as the molecule, how does the inhibition read?
**A.** -3.23%

**Q.** Which inhibition does the source give for Cc1ccc(-n2nnnc2CNC(=O)c2ccc(F)cc2)cc1C here?
**A.** 16.3%

**Q.** For N/C(=N\c1nc2c(c(=O)[nH]1)CCC2)Nc1ccccc1, which inhibition is on record?
**A.** active: 30%

**Q.** Clc1cccc(N2CCN(c3ncnc4c3nc3n4CCCC3)CC2)c1 was tested. Which inhibition did it give?
**A.** -5.77%
